In PMC4242493:
The list shows a part of the results. The list includes weakly bound sequences.

These sequences were tested against MaxL homodimer (UniProt P61244) (assay: universal protein-binding microarray (PBM)). Settings: PBS-based mixture, 10 nM His-tagged protein dimer, 2% milk, 200 ng/uL BSA, 50 ng/uL salmon testes DNA, 0.02% TX-100; detection with Alexa 488 anti-His …; high values mean tight binding; most listed sequences are background and not binding sites; double strand, one strand shown.
Sequence of UniProt P61244 (P61244 whole entry): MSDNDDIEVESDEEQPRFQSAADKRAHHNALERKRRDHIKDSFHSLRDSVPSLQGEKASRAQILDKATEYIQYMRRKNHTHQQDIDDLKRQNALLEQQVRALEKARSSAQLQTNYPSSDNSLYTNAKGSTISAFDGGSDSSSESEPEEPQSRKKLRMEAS

Row | Sequence | binding signal (normalized occupancy)
1 | CCCAATCA | 0.0801
2 | CAGTCCGG | 0.0701
3 | ACTGTCAT | 0.0825
4 | AGCTGACT | 0.0677
5 | CGACATAG | 0.0786
6 | CCCATTCA | 0.0811
7 | CCAAGAGG | 0.0701
8 | CTCAACAC | 0.0811
9 | AAACCAAC | 0.0716
10 | GAGGTCAA | 0.0778
11 | AACACGAG | 0.11
12 | AGAGCAGA | 0.0696
13 | GTTGCTGA | 0.0757
14 | TCAACGAA | 0.0702
15 | TCCGTACA | 0.0742
16 | AACTGTAT | 0.0744
17 | CGGTTCCC | 0.0697
18 | ACACTGCA | 0.0769
19 | CACGTCAG | 0.0836
20 | GTCGTTGA | 0.0714
21 | ATCGTAAG | 0.0756
22 | AGTGATTG | 0.0741
23 | CTAAAGAC | 0.0725
24 | AAATTTAT | 0.0783
25 | ACGAGCCT | 0.0744

Row | Sequence | binding signal (normalized occupancy)
26 | CGTCACGC | 0.0948
27 | ACAACATC | 0.0778
28 | CGTTCAAC | 0.0743
29 | ATTTTAGG | 0.0733
30 | ACTGTGCG | 0.0774
31 | ACAGTGGT | 0.0722
32 | CAAGGCTA | 0.0744
33 | AGCATGAC | 0.0962
34 | CGTAGGTC | 0.0714
35 | AGATAACA | 0.0751
36 | GATACTTA | 0.0759
37 | ATGGGAAG | 0.0823
38 | CCCAGAAA | 0.0773
39 | CTTACCTC | 0.0706
40 | AATGCTAT | 0.0758
41 | AGGCTGGG | 0.073
42 | AAGAGCAT | 0.0806
43 | GGGATGTA | 0.0814
44 | AACCGCGT | 0.0785
45 | ACTCTGAA | 0.0737
46 | GCAGTCCC | 0.0748
47 | ATCTCTTG | 0.074
48 | GAGAACAA | 0.0772
49 | CGTGGAAA | 0.0938
50 | AGCCGACA | 0.0757

Row | Sequence | binding signal (normalized occupancy)
51 | GTTAAGGA | 0.0723
52 | ACCATATC | 0.0845
53 | CAGTCCCC | 0.0743
54 | CTGACGTC | 0.071
55 | CAACAAGC | 0.078
56 | AGATCGTG | 0.0794
57 | GAGAGCCC | 0.07
58 | CACATAGC | 0.08
59 | AACAAGTC | 0.0745
60 | GATGCAAC | 0.0749
61 | CCAGACAG | 0.07
62 | CATCTATA | 0.0845
63 | ATTCTTGA | 0.0788
64 | AAGGAAGG | 0.0748
65 | CGATATGA | 0.0772
66 | ACCAGTGC | 0.0699
67 | CTCTCGCC | 0.0733
68 | CTGTACAC | 0.082
69 | CACGTTAC | 0.115
70 | CAACATAG | 0.0774
71 | ACGCCACA | 0.0778
72 | ACCTATCC | 0.0801
73 | ATTCTATA | 0.0851
74 | ACCGAAGG | 0.0658
75 | GCCAGCCC | 0.0659

Row | Sequence | binding signal (normalized occupancy)
76 | ATCCGAGA | 0.0742
77 | AAGATGCT | 0.0778
78 | GATGATAC | 0.0803
79 | TAACAAAA | 0.0694
80 | ACTGACAG | 0.0704
81 | CCAAGTCC | 0.0675
82 | CATAAACC | 0.0814
83 | CATGCCGG | 0.0917
84 | AGTTTTTG | 0.0729
85 | CCGCCTCC | 0.0704
86 | ACCGAACT | 0.0672
87 | AGCGCACT | 0.07
88 | GGGACCAA | 0.0724
89 | ATGTAATC | 0.0877
90 | TAAGACTA | 0.0761
91 | CACGAGAA | 0.0893
92 | CCACCGGC | 0.0644
93 | CACTAACA | 0.0775
94 | CCCGGCAC | 0.0831
95 | TAGTTACA | 0.077
96 | GACCGATC | 0.0744
97 | CCAGAGAG | 0.0693
98 | GACGTTAC | 0.0746
99 | GATGTACC | 0.0806
100 | TGTTCTAA | 0.0775

Row | Sequence | binding signal (normalized occupancy)
101 | CACTCTGA | 0.0787
102 | CGTCTTAG | 0.0726
103 | ATTTAACG | 0.0809
104 | CCGCGAAC | 0.0706
105 | TAGCGACA | 0.0738
106 | AACATCCT | 0.0783
107 | AGTTCTTC | 0.0709
108 | ATTTATTG | 0.0781
109 | TCGCAACA | 0.0723
110 | CTGCGGAA | 0.0656
111 | GCTAGCGA | 0.0671
112 | GTAGAGAC | 0.0704
113 | GTATAGTA | 0.0791
114 | AGGTTCAT | 0.0782
115 | AGTGGATC | 0.0725
116 | GGGATATA | 0.0829
117 | ACAGTCTC | 0.0733
118 | ACCCGGTA | 0.0776
119 | TTTACAAA | 0.0785
120 | CACGATTC | 0.0796
121 | AGACAATG | 0.0826
122 | AGGTAGTG | 0.0808
123 | GATAGCTA | 0.0735
124 | GGGAGTTA | 0.0782
125 | AGGCGCTG | 0.0702

Row | Sequence | binding signal (normalized occupancy)
126 | AGGCCCGC | 0.0714
127 | AGACGTTG | 0.0682
128 | GGGTCCCA | 0.0727
129 | ATTAAGAG | 0.0712
130 | AAGCAAAG | 0.0696
131 | GTTATTCA | 0.0786
132 | CAAAACAA | 0.0735
133 | ACATGCGC | 0.109
134 | ATCTCGTA | 0.0765
135 | CACAGGGA | 0.0741
136 | AACGTCCG | 0.0721
137 | GATGTTGC | 0.0781
138 | GATTCCCA | 0.0755
139 | CAAAACAG | 0.0731
140 | TGCAGGCA | 0.0732
141 | TAACGTGA | 0.0935
142 | CATGTTAG | 0.0923
143 | CCTTACAG | 0.0695
144 | AAGTTTCG | 0.0705
145 | ATGAGGCA | 0.0899
146 | ACTGCCAG | 0.0747
147 | CCGCGTAG | 0.0711
148 | CAAGTTAG | 0.0743
149 | AATACTGC | 0.0763
150 | AAGTGACG | 0.0707

Row | Sequence | binding signal (normalized occupancy)
151 | AGACAAGC | 0.0716
152 | AACGCCCC | 0.0758
153 | TCCAATCA | 0.0714
154 | AGTTCGGA | 0.0649
155 | AGACTAAG | 0.0726
156 | AACTTTTG | 0.074
157 | AGGCGCCT | 0.0626
158 | AACCAGGG | 0.0675
159 | CGAGTGTC | 0.0736
160 | ATACGGGA | 0.0757
161 | TAGACCCA | 0.0764
162 | CAGGCTCC | 0.0681
163 | ACCCTCTG | 0.0729
164 | AACTTGAC | 0.0743
165 | GCAAAGAA | 0.0727
166 | CGGGGATC | 0.0731
167 | CGACGATC | 0.0747
168 | CACACCGA | 0.0782
169 | ACTCGTTA | 0.0776
170 | AGCCAACT | 0.0681
171 | GAACAACA | 0.0723
172 | GCCGGAGA | 0.0691
